This note sets out measurements from PMC10668032.

The list shows a part of the results. At the low end of the ranking the order means little.

The test deals with SIX1 homeodomain (reference allele) (UniProt Q15475). Description: universal protein binding microarray. As to conditions: Universal all-10-mer PBM (8x60K, AMADID 030236), 300 nM GST-tagged protein, Alexa Fluor 488 anti-GST; buffer, salt, pH and temperature not stated; high values mean tight binding; most listed sequences are background and not binding sites; double strand, one strand shown.
For GTGGAAAC, the binding signal was -0.284 E-score.
CCAAGTGG: the binding signal is 0.0554 E-score.
Turning to ACATTAGA, the binding signal was -0.0395 E-score.
In the case of ATTCCATC, the binding signal came out at 0.0721 E-score.
Consider CGAGGCAC, for which the binding signal is -0.018 E-score.
The figure for CTGGCTCC is -0.159 E-score; for ATCACTCG it is 0.269 E-score; for AGTCCGAA it is -0.127 E-score.
In the case of AAGGTTGA, the binding signal was -0.167 E-score.
The figure for AACATAAT is 0.0691 E-score; for GTGTTTGA it is -0.029 E-score.
For AATAAGAT, the binding signal came to 0.0671 E-score.
In the case of GTATCATA, the binding signal stood at 0.471 E-score.
As to CATCGGGG, the binding signal worked out at 0.0553 E-score.
GGGGGGAA: the binding signal is -0.0515 E-score.
In the case of TGATACAA, the binding signal was 0.337 E-score.
Turning to ATTCGAAG, the binding signal is -0.135 E-score.
CTGGTGCA: the binding signal is -0.0842 E-score.
In the case of CTGACCAC, the binding signal was -0.114 E-score.
For AGTTACTC, the binding signal is -0.133 E-score.
The figure for AATGGACT is -0.374 E-score.
Take AGGGCACA: the binding signal was -0.0128 E-score.
Consider AGGGGATC, for which the binding signal was determined as 0.426 E-score.
As to CACAAGGA, the binding signal is -0.018 E-score.
CACTCCAG: the binding signal was determined as 0.0773 E-score.
The figure for CAACAATG is -0.125 E-score; for AATTCCAT it is -0.179 E-score.
Take CAATCGGC: the binding signal is -0.052 E-score.
Turning to ACACGTTA, the binding signal is -0.145 E-score.
Turning to CGATCTAG, the binding signal worked out at 0.158 E-score.
The figure for AGCTAAGC is -0.29 E-score.
Consider ATGAAATG, for which the binding signal was -0.134 E-score.
The result for AAATAGTA reads 0.0508 E-score; that for ACCGGTTA, -0.0804 E-score; that for AACTCCGG, 0.0002 E-score.
In the case of CTGTCATC, the binding signal is 0.0102 E-score.
With AGTATTAA, the binding signal stood at 0.233 E-score.
For the sequence CCGCATAG, the binding signal was determined as 0.0244 E-score.
With CTCCCTTA, the binding signal is -0.101 E-score.
TAGTTAAA: the binding signal is -0.0474 E-score.
For the sequence AGAGTTCC, the binding signal is -0.142 E-score.
Take CTGGGAGA: the binding signal is 0.12 E-score.
The figure for AGTCGCCG is -0.183 E-score.
Regarding AGTTAAGC, the binding signal is -0.179 E-score.
On to ACTCTTAA, for which the binding signal was -0.254 E-score.
With GCAGTACA, the binding signal was -0.0521 E-score.
For the sequence ACAAAAAA, the binding signal was -0.331 E-score.
The result for TCACCAAA reads -0.0555 E-score; that for CGCCGCTC, -0.219 E-score; that for CCTGTGTC, 0.0393 E-score.
On to TCTCTAAA, for which the binding signal was -0.0937 E-score.
In the case of ATACGAGA, the binding signal worked out at 0.278 E-score.
GGGTTTTA: the binding signal is -0.00462 E-score.
The figure for CTGCAAAG is -0.158 E-score; for ACCCCTTG it is 0.151 E-score.
As for AACTGCAG, the binding signal was -0.189 E-score.
For the sequence CGCTCGGA, the binding signal was found to be 0.0152 E-score.
Regarding CATAGAAC, the binding signal was -0.043 E-score.
Consider GGCCAACC, for which the binding signal was found to be 0.000685 E-score.
The figure for CACGCCAG is 0.141 E-score; for CATAGCCC it is -0.144 E-score.
Consider AGACATGG, for which the binding signal is -0.0687 E-score.
Consider CGTTCTAA, for which the binding signal was -0.0136 E-score.
The figure for ACGATCGG is 0.169 E-score; for CGCGCCTA it is -0.0718 E-score.
Take GAGAGCAA: the binding signal is -0.019 E-score.
CCTTATGC: the binding signal is -0.069 E-score.
ATCGATCC: the binding signal was found to be 0.389 E-score.
The figure for ATCCCATC is 0.297 E-score; for GTACGCAA it is -0.0828 E-score; for AAATACTT it is -0.0329 E-score.
Regarding CGAGGAGC, the binding signal was -0.0273 E-score.
As to ATTTCGTA, the binding signal is -0.106 E-score.
Turning to CATGCCTC, the binding signal is -0.0904 E-score.
On to ATGAATGC, for which the binding signal came out at 0.0191 E-score.
Take AGATTGAT: the binding signal came to 0.221 E-score.
Take TAGCCCAA: the binding signal is -0.132 E-score.
CGGTTCTC: the binding signal is -0.117 E-score.
As for AATGAGGT, the binding signal is -0.163 E-score.
Regarding ACACCCGT, the binding signal was found to be 0.296 E-score.
For CATAGAAA, the binding signal was -0.121 E-score.
CATTTCTA: the binding signal is -0.238 E-score.
The result for GATCACAA reads 0.31 E-score; that for GCAAATTA, -0.15 E-score; that for TAACACGA, 0.19 E-score.
On to AACCGGTA, for which the binding signal is 0.073 E-score.
The figure for AGTCCACC is -0.177 E-score; for TCTTGGCA it is -0.132 E-score.
As to GATACTTA, the binding signal came to 0.401 E-score.
Take CTTACCTC: the binding signal was -0.229 E-score.
With CCCAGAAA, the binding signal is -0.081 E-score.
For ATGGGAAG, the binding signal amounted to 0.0379 E-score.
Turning to ACTGTGCG, the binding signal is -0.0925 E-score.
As to ATTTTAGG, the binding signal was -0.149 E-score.
On to ACAGTGGT, for which the binding signal was found to be 0.155 E-score.
Regarding CGTTCAAC, the binding signal was -0.0311 E-score.
The figure for CGTCACGC is -0.233 E-score.
For ACAACATC, the binding signal is -0.123 E-score.
On to ACGAGCCT, for which the binding signal is -0.0268 E-score.
As to AAATTTAT, the binding signal was -0.143 E-score.
On to AGATAACA, for which the binding signal was -0.0399 E-score.
For the sequence CGTAGGTC, the binding signal is -0.0984 E-score.
For AGCATGAC, the binding signal was -0.158 E-score.
CAAGGCTA: the binding signal is -0.088 E-score.
The figure for GTTAAGGA is -0.0526 E-score.
In the case of AGCCGACA, the binding signal was -0.00148 E-score.
For GAGAACAA, the binding signal is -0.188 E-score.
CGTGGAAA: the binding signal came to 0.0351 E-score.
The result for ATCTCTTG reads 0.224 E-score.
The result for CAACAAGC reads -0.24 E-score.
Consider CTGACGTC, for which the binding signal is -0.0771 E-score.
Consider CAGTCCCC, for which the binding signal is -0.196 E-score.
On to ACCATATC, for which the binding signal was determined as 0.418 E-score.
Take AACCGCGT: the binding signal is -0.0438 E-score.
In the case of ACTCTGAA, the binding signal is -0.109 E-score.
Regarding GGGATGTA, the binding signal was found to be 0.179 E-score.
The figure for AAGAGCAT is -0.055 E-score; for AGGCTGGG it is -0.0118 E-score.
With AATGCTAT, the binding signal is 0.0612 E-score.
In the case of GCAGTCCC, the binding signal was -0.218 E-score.
As to AGCATGAA, the binding signal was -0.162 E-score.
In the case of GGCTATAA, the binding signal came out at 0.123 E-score.
On to ACTGTCAT, for which the binding signal was found to be 0.00388 E-score.
Take CAGTCCGG: the binding signal was determined as 0.000675 E-score.
For CCCAATCA, the binding signal is -0.163 E-score.
Regarding GGCCACAA, the binding signal is -0.217 E-score.
For AATCAGTC, the binding signal is -0.192 E-score.
Turning to CACCGGTC, the binding signal stood at 0.111 E-score.
For the sequence AGATACCC, the binding signal was 0.468 E-score.
The figure for CGAAATCG is -0.14 E-score.
Turning to CAACGAGG, the binding signal worked out at 0.0724 E-score.
Consider AACCACGC, for which the binding signal was -0.156 E-score.
As to CTAAAGAC, the binding signal is -0.293 E-score.
The result for AGTGATTG reads -0.111 E-score.
ATCGTAAG: the binding signal is -0.0305 E-score.
The figure for GTCGTTGA is -0.00164 E-score; for GAGGTCAA it is -0.236 E-score; for AAACCAAC it is -0.337 E-score.
Take CTCAACAC: the binding signal came out at 0.121 E-score.
The figure for CCAAGAGG is -0.121 E-score; for CCCATTCA it is -0.116 E-score; for AGCTGACT it is -0.197 E-score.
As to CGACATAG, the binding signal was -0.146 E-score.
With ACACTGCA, the binding signal turned out to be 0.0198 E-score.
As for CACGTCAG, the binding signal was -0.0568 E-score.
In the case of CGGTTCCC, the binding signal was -0.0878 E-score.
Consider AACTGTAT, for which the binding signal amounted to 0.101 E-score.
The figure for GTTGCTGA is -0.146 E-score; for TCAACGAA it is -0.188 E-score; for TCCGTACA it is 0.0666 E-score.
The figure for AACACGAG is -0.0862 E-score.
Regarding AGAGCAGA, the binding signal was -0.0762 E-score.
In the case of CCGTATCC, the binding signal amounted to 0.438 E-score.
For CGCTACAA, the binding signal is -0.148 E-score.
With AGGGGGTA, the binding signal is 0.294 E-score.
In the case of ACTCCCCA, the binding signal was -0.0768 E-score.
CAATTGTA: the binding signal was -0.014 E-score.
Take ATGCAGTA: the binding signal is 0.0697 E-score.
The figure for CCTCCAGG is -0.0847 E-score; for CCGCAGGC it is 0.00386 E-score.
The result for AAAGTGCT reads -0.3 E-score.
The result for AGCCATCC reads -0.0445 E-score; that for GACCAAAC, -0.167 E-score; that for AGTAGGAG, -0.121 E-score.
For ACATATGC, the binding signal was -0.0816 E-score.
AATAGTAA: the binding signal was -0.257 E-score.
Turning to ATGATTAA, the binding signal was -0.0186 E-score.
Take ACTAATGC: the binding signal is -0.0417 E-score.
In the case of GTCGAATA, the binding signal was -0.0148 E-score.
For the sequence AATTTACC, the binding signal was found to be 0.0693 E-score.
On to AGTCTCAC, for which the binding signal turned out to be 0.0122 E-score.
The result for CCTGTTAG reads -0.0306 E-score.
